According to the supplement of paper PMC9542798:

Tests used:
Assay in all cases: minimum inhibitory concentration
Vancomycin = compound: CN[C@H](CC(C)C)C(=O)N[C@H]1C(=O)N[C@@H](CC(N)=O)C(=O)N[C@H]2C(=O)N[C@H]3C(=O)N[C@H](C(=O)N[C@H](C(=O)O)c4cc(O)cc(O)c4-c4cc3ccc4O)[C@H](O)c3ccc(c(Cl)c3)Oc3cc2cc(c3O[C@@H]2O[C@H](CO)[C@@H](O)[C@H](O)[C@H]2O[C@H]2C[C@](C)(N)[C@H](O)[C@H](C)O2)Oc2ccc(cc2Cl)[C@H]1O [Vancomycin]
Description: (§1)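 Broth microdilution MIC per ISO 10932 on precoated VetMIC Lact-1 plates (tylosin, vancomycin and ampicillin plates prepared manually) against lactic acid bacteria and bifidobacteria isolates. Plates were read visually after 48 h anaerobic incubation (bifidobacteria 72 h; enterococci and staphylococci 24 h aerobic) at species-specific temperatures of 30 or 37 °C. Values prefixed with < or > are outside the tested dilution range.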

Chloramphenicol = compound: O=C(N[C@H](CO)[C@H](O)c1ccc([N+](=O)[O-])cc1)C(Cl)Cl [Chloramphenicol]
Description: as §1

Gentamicin = compound: CNC(C)C1CCC(N)C(OC2C(N)CC(N)C(OC3OCC(C)(O)C(NC)C3O)C2O)O1 [Gentamicin]
Description: as §1

Tetracycline = compound: CN(C)[C@@H]1C(O)=C(C(N)=O)C(=O)[C@@]2(O)C(O)=C3C(=O)c4c(O)cccc4[C@@](C)(O)[C@H]3C[C@@H]12 [Tetracycline]
Description: as §1

Neomycin = compound: NC[C@@H]1O[C@H](O[C@H]2[C@@H](O)[C@H](O[C@@H]3[C@@H](O)[C@H](N)C[C@H](N)[C@H]3O[C@H]3O[C@H](CN)[C@@H](O)[C@H](O)[C@H]3N)O[C@@H]2CO)[C@H](N)[C@@H](O)[C@@H]1O [Neomycin]
Description: as §1

Kanamycin = compound: NC[C@H]1O[C@H](O[C@H]2[C@H](O)[C@@H](O[C@H]3O[C@H](CO)[C@@H](O)[C@H](N)[C@H]3O)[C@H](N)C[C@@H]2N)[C@H](O)[C@@H](O)[C@@H]1O [Kanamycin]
Description: as §1

Erythromycin = compound: CC[C@H]1OC(=O)[C@H](C)[C@@H](O[C@H]2C[C@@](C)(OC)[C@@H](O)[C@H](C)O2)[C@H](C)[C@@H](O[C@@H]2O[C@H](C)C[C@H](N(C)C)[C@H]2O)[C@](C)(O)C[C@@H](C)C(=O)[C@H](C)[C@@H](O)[C@]1(C)O [Erythromycin]
Description: as §1

Ampicillin = compound: CC1(C)S[C@@H]2[C@H](NC(=O)[C@H](N)c3ccccc3)C(=O)N2[C@H]1C(=O)O [Ampicillin]
Description: as §1

Clindamycin = compound: CCC[C@@H]1C[C@@H](C(=O)N[C@@H]([C@H]2O[C@H](SC)[C@H](O)[C@@H](O)[C@H]2O)[C@H](C)Cl)N(C)C1 [Clindamycin]
Description: as §1

Streptomycin = compound: CN[C@@H]1[C@H](O[C@H]2[C@H](O[C@H]3[C@H](O)[C@@H](O)[C@H](N=C(N)N)[C@@H](O)[C@@H]3N=C(N)N)O[C@@H](C)[C@]2(O)C=O)O[C@@H](CO)[C@H](O)[C@H]1O [Streptomycin]
Description: as §1
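Note: isolates derived from commercial starter, protective, probiotic or feed-additive cultures, from fermented products, from human gut mucosa or feces, and from human milk or colostrum.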

Row | Test System | minimum inhibitory concentration (Vancomycin) [µg/mL] | minimum inhibitory concentration (Chloramphenicol) [µg/mL] | minimum inhibitory concentration (Gentamicin) [µg/mL] | minimum inhibitory concentration (Tetracycline) [µg/mL] | minimum inhibitory concentration (Neomycin) [µg/mL] | minimum inhibitory concentration (Kanamycin) [µg/mL] | minimum inhibitory concentration (Erythromycin) [µg/mL] | minimum inhibitory concentration (Ampicillin) [µg/mL] | minimum inhibitory concentration (Clindamycin) [µg/mL] | minimum inhibitory concentration (Streptomycin) [µg/mL]
1 | Streptococcus thermophilus IM1413 (strain group: starter cultures) | < 0.25 | 2 | < 0.5 | 0.5 | 2 | 4 | 0.06 | 0.063 | 0.06 | 4
2 | Lacticaseibacillus paracasei/casei IM1458 (strain group: probiotic strains) | > 8 | 8 | 8 | 2 | – | 64 | < 0.12 | 0.5 | 0.5 | 32
3 | Lactobacillus gallinarum IM1460 (strain group: probiotic strains) | 1 | 4 | 8 | 4 | – | 64 | < 0.12 | 1 | 2 | 16
4 | Pediococcus pentosaceus IM1056 (strain group: non-starter strains) | – | 4 | 8 | 32 | 8 | 256 | 0.5 | 4 | 0.12 | 64
5 | Lacticaseibacillus paracasei IM579 (strain group: probiotic strains) | – | 4 | 16 | 2 | 32 | 128 | 0.25 | 1 | 0.25 | 16
6 | Lactiplantibacillus plantarum IM1291 (strain group: non-starter strains) | – | 8 | 4 | 16 | 2 | 64 | 1 | 0.5 | 0.06 | 32
7 | Lactiplantibacillus plantarum IM1026 (strain group: non-starter strains) | – | 8 | 8 | 8 | 8 | 128 | 0.5 | 1 | 2 | 64
8 | Lactiplantibacillus plantarum IM1157 (strain group: non-starter strains) | – | 4 | 8 | 16 | 8 | 256 | 0.5 | 2 | 1 | 128
9 | Pediococcus pentosaceus IM1144 (strain group: non-starter strains) | – | 4 | 8 | 32 | 8 | 256 | 0.5 | 4 | 0.06 | 128
10 | Lacticaseibacillus paracasei IM693 (strain group: human intestinal mucosa or faeces) | – | 8 | 2 | 2 | 4 | 16 | 0.25 | 1 | 0.12 | 16
11 | Lacticaseibacillus rhamnosus IM1072 (strain group: non-starter strains) | – | 8 | 4 | 16 | 4 | 64 | 0.5 | 1 | 0.5 | 32
12 | Lactiplantibacillus plantarum IM699 (strain group: human intestinal mucosa or faeces) | – | 8 | 8 | 16 | 4 | 128 | 0.5 | 0.5 | 2 | 64
13 | Lacticaseibacillus rhamnosus IM860 (strain group: human milk or colostrum) | – | 8 | 4 | 1 | 4 | 64 | 0.25 | 2 | 1 | 16
14 | Lacticaseibacillus rhamnosus IM817 (strain group: human milk or colostrum) | – | 8 | 8 | 2 | 8 | 64 | 0.25 | 2 | 1 | 16
15 | Lentilactobacillus parabuchneri IM1149 (strain group: non-starter strains) | – | 8 | 4 | 32 | 4 | 128 | 0.5 | 2 | 0.25 | 64
16 | Lacticaseibacillus paracasei IM1281 (strain group: non-starter strains) | – | 4 | 4 | 1 | 4 | 64 | 0.12 | 1 | 0.25 | 32
17 | Lactiplantibacillus plantarum IM1156 (strain group: non-starter strains) | – | 4 | 2 | 8 | 4 | 64 | 0.25 | 2 | 2 | 32
18 | Limosilactobacillus fermentum IM851 (strain group: human milk or colostrum) | – | 4 | 2 | 4 | 2 | 64 | 0.25 | 1 | 0.06 | 32

Row | Test System | minimum inhibitory concentration (Vancomycin) [µg/mL] | minimum inhibitory concentration (Chloramphenicol) [µg/mL] | minimum inhibitory concentration (Gentamicin) [µg/mL] | minimum inhibitory concentration (Tetracycline) [µg/mL] | minimum inhibitory concentration (Neomycin) [µg/mL] | minimum inhibitory concentration (Kanamycin) [µg/mL] | minimum inhibitory concentration (Erythromycin) [µg/mL] | minimum inhibitory concentration (Ampicillin) [µg/mL] | minimum inhibitory concentration (Clindamycin) [µg/mL] | minimum inhibitory concentration (Streptomycin) [µg/mL]
19 | Limosilactobacillus fermentum IM850 (strain group: human milk or colostrum) | – | 4 | 1 | 4 | 1 | 64 | 0.25 | 1 | 0.06 | 32
20 | Lacticaseibacillus paracasei IM1105 (strain group: non-starter strains) | – | 4 | 2 | 1 | 4 | 64 | 0.12 | 2 | 0.5 | 16
21 | Leuconostoc mesenteroides IM1345 (strain group: non-starter strains) | – | 2 | 4 | 0.5 | 8 | 64 | 0.12 | 2 | 0.12 | 32
22 | Pediococcus pentosaceus IM1061 (strain group: non-starter strains) | – | 4 | 8 | 32 | 8 | 256 | 0.5 | 4 | 0.06 | 128
23 | Lacticaseibacillus paracasei IM1286 (strain group: non-starter strains) | – | 4 | 4 | 1 | 16 | 64 | 0.12 | 2 | 0.12 | 32
24 | Lactiplantibacillus plantarum IM1160 (strain group: non-starter strains) | – | 8 | 4 | 16 | 4 | 128 | 0.5 | 1 | 1 | 64
25 | Lactiplantibacillus plantarum IM1382 (strain group: probiotic strains) | – | 8 | 16 | 16 | 32 | 128 | 0.5 | 0.5 | 8 | 128
26 | Lacticaseibacillus casei IM806 (strain group: probiotic strains) | – | 8 | 1 | 2 | 2 | 32 | 0.25 | 1 | 4 | 16
27 | Lactiplantibacillus plantarum IM1350 (strain group: non-starter strains) | – | 8 | 8 | 16 | 16 | 32 | 1 | 2 | 8 | 32
28 | Lactiplantibacillus plantarum IM659 (strain group: probiotic strains) | – | 8 | 8 | 16 | 8 | 128 | 1 | 0.5 | 16 | 64
29 | Lacticaseibacillus rhamnosus IM660 (strain group: probiotic strains) | – | 8 | 2 | 1 | 4 | 32 | 0.5 | 2 | 1 | 8
30 | Lacticaseibacillus rhamnosus IM1145 (strain group: non-starter strains) | – | 16 | 2 | 1 | 4 | 64 | 0.25 | 4 | 1 | 8
31 | Lacticaseibacillus paracasei IM1290 (strain group: non-starter strains) | – | 8 | 16 | 2 | 32 | 128 | 0.25 | 2 | 0.25 | 32
32 | Levilactobacillus brevis IM1335 (strain group: non-starter strains) | – | 4 | 1 | 16 | 1 | 32 | 1 | 8 | 16 | 16
33 | Lactiplantibacillus plantarum IM1163 (strain group: non-starter strains) | – | 4 | 4 | 16 | 2 | 128 | 0.5 | 0.5 | 2 | 32
34 | Pediococcus acidilactici/pentosaceus/lolli IM705 (strain group: human milk or colostrum) | – | 8 | 8 | 32 | 32 | 512 | 1 | 4 | 0.12 | 128
35 | Lactiplantibacillus plantarum IM563 (strain group: probiotic strains) | – | 4 | 8 | 8 | 8 | 128 | 1 | 0.5 | 4 | 64
